Laboratory results: the supplement of paper PMC10338343
± gives the standard deviation. The list shows a part of the results, in another mix than the full data.

Test system: MIWI (PIWIL1) piRISC loaded with piRNA #1 (30 nt)
Experiment: pre-steady-state target cleavage rate (min^-1); MIWI and MILI are mouse PIWI proteins and EfPiwi is from a freshwater sponge; tags in brackets are library labels; higher = faster piRNA-guided slicing of the target
Details: guide: piRNA #1 5'p-UGAGGUAGUAGGUUGUAUAGUAUCCAGAGG; auxiliary factor: 500 nM mouse GTSF1
In short: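 The method was Cleave-'n-Seq, in which uncleaved targets from a transcribed, DNA-blocked target RNA library were sequenced after exposure to active affinity-purified piRISC carrying one synthetic guide, with or without GTSF1 partner protein. Reactions contained 0.1 nM library, 1 nM piRISC and, where present, 500 nM GTSF1 in HEPES–potassium acetate buffer at 33 °C for 0–8 or 0–960 min. Reads were normalised to depth and to weakly complementary targets, three trials were pooled, and k3 was capped at 0.0001 min^-1. The pre-steady-state cleavage rate came from a burst-and-steady-state fit.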

| Sequence | pre-steady-state target cleavage rate |
| --- | --- |
| CCUCAGGAUACUAUACAACCUACUAGCUCA | 1.13 ± 0.056 |
| GGACUGCUAACUAUACAACCUACUACCUCA | 1.05 ± 0.093 |
| GGAGACCUUACUAUACUACGUACUACCUCA | 0.0392 ± 0.0094 |
| GGACUGCAUACUAUACAACCUACUACCUCA | 1.55 ± 0.11 |
| GGAGACCAUACUAUACAUCCUACUUCCUCA | 0.467 ± 0.047 |
| GGAGACCUUACUAUACUUCCUACUACCUCA | 0.0399 ± 0.0077 |
| GCACAGGAUACUAUACAACCUACUACCUCA | 1.81 ± 0.1 |
| GGAGACGAUACUUUACAACCUACUACCACA | 0.641 ± 0.061 |
| GGAGUGGAUACUAUACAACCUUCUACGUCA | 0.103 ± 0.021 |
| GGAGACCUAACUAAACAACCUACUACCUGA | 0.0122 ± 0.0077 |
| GGAGACCUAACAAUACAACCUACUACCACA | 0.00615 ± 0.0049 |
| GCACUGGAUACUAAACAACCUACUACCUCA | 1.87 ± 0.1 |
| GCUCUGGAUACAAUACAACCUACUACCACA | 1.43 ± 0.088 |
| GGUCUGGAAACUAUAGAACCUACUACCUCA | 1.2 ± 0.077 |
| GGAGACCUUACUAUAUAACCUACUACCUCA | 1.29 ± 0.098 |
| GGAGACCUAUGAUAUGUUGGUACUACCAGA | < 0.0001 |
| GGAGACCUUACUAUACAACCUACUUCCUGA | 0.11 ± 0.02 |
| GCUUCUGGAUACUAUACAACCUACUACCUCA | 1.94 ± 0.091 |
| GGAGACCUAACUAUACAACCAACUACCACA | 0.0132 ± 0.0044 |
| GCUCACCAUACUAUACAACCUACUACCUCA | 1.87 ± 0.13 |
| GGAGACCUAUCUAUACAACCGACUACCUCA | 0.00636 ± 0.0026 |
| GGACCGGAUACUAUACAACCUACUACCUCA | 1.77 ± 0.11 |
| CCUGUGGAUACUAUACAUCCUACUACCUCA | 1.84 ± 0.11 |
| GGAGACCUAACUAUACAAGCUACAACCUCA | 0.192 ± 0.025 |
